PubChem BioAssay AID1347417 (National Center for Advancing Translational Sciences (NCATS), 2020)
Among all 120,000 compounds or so, about 5,300 (4.4%) were called active. This list was built around the results that the source calls inconclusive (neither active nor inactive); the mix of calls is not that of the screen. Calls come from the whole dose curve; as a rule, active = well fitted inhibition curve with a large enough effect; inconclusive = small, poorly fitted or top-dose-only effect; inactive = no such curve, though single readings can be large or run the other way. Potencies beside an inconclusive call are fits to weak or partial responses and may not hold up.

assay: qHTS Primary assay for Inhibitors of Plasmodium falciparum Dd2 growth in vitro; note: nearly all actives have a fitted effect of over 65% in size;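 for activity, negative = inhibition: plate controls were DMSO vehicle for no effect and reference drug for full effect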; conditions: P. falciparum Dd2 growth, SYBR Green, 72 h; activity, negative = inhibition: at 28.9 µM (top of the series) unless noted; series mostly up to 28.9 µM
Method in brief: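 Infected erythrocytes (Dd2, 0.3% parasitemia, 2.5% hematocrit final) are added to compound in RPMI-1640/Albumax II medium, grown 72 h at 37C in low oxygen, then lysed with saponin/Triton-X containing SYBR Green and read by fluorescence.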
Potency is the fitted concentration of half-maximal effect; tags give direction and shape of the fitted curve.

Row | SMILES | Potency | activity, negative = inhibition | outcome
1 | CC(C)C(=O)N1CCC2(CC1)NCCc1c2[nH]c2ccccc12 | inconclusive: 7.94 µM [inhibitor, partial curve, poor fit] |  | 
2 | N#Cc1ccc(C(=O)Nc2ccc3n(c2=O)C[C@H]2C[C@@H]3CN(C(=O)c3ccccn3)C2)cc1 |  | inactive: -22.6% | 
3 | Cn1ccnc1C(=O)C1CCCN(Cc2cc(=O)c3cccc(Cl)c3[nH]2)C1 (configuration not stated) | inconclusive: 11.2 µM [inhibitor, partial curve, poor fit] |  | 
4 | Cc1nnc([C@@H]2CC(F)(F)CN2C(=O)c2ccc3ccccc3n2)o1 |  | inactive: 67.4% | 
5 | COc1ccc(N2CCN(C(=O)CSc3c4c(nc5ccc(Cl)cc35)CCCC4)CC2)cc1 | inconclusive: 11.2 µM [inhibitor, single point] |  | 
6 | Cc1nc(-c2ccccc2Br)cc([C@H]2CN3CC[C@H]2C[C@@H]3CNS(=O)(=O)c2cccs2)n1 | inconclusive: 17.8 µM [inhibitor, single point] |  | 
7 | Cc1ccc(C(=O)NCC(=O)N2CCCCCNC(=O)CC2c2ccccc2)s1 (configuration not stated) |  | inactive: -13.9% | 
8 | Cc1ccc(CN2CCc3nc(C(=O)Nc4ccccc4)oc3CC2)cc1 | inconclusive: 1.41 µM [inhibitor, partial curve, poor fit] |  | 
9 | CCOc1ccc(CNC(=O)c2ccc3c(c2)N(CC)CCS3)cc1 |  | inactive: 36.2% | 
10 | COc1ccccc1C(=O)Nc1ccnn1C1CCN(C(=O)CCN)CC1 |  | inactive: -4.43% | 
11 | Cc1cccc(N2CCN(S(=O)(=O)c3ccc4c(c3)C(C(C)C)C(=O)N4)CC2)c1C (configuration not stated) | inconclusive: 17.8 µM [inhibitor, single point] |  | 
12 | CCOc1ccccc1NC(=O)C1CCN(S(=O)(=O)c2cc(Br)cc3c2N(C(C)=O)CC3)CC1 | inconclusive: 2 µM [inhibitor, full curve, poor fit] |  | 
13 | CN1c2cc(C(=O)Nc3cccc(Cl)c3)ccc2C(=O)N2CCCCC21 (configuration not stated) | inconclusive: 10 µM [inhibitor, single point] |  | 
14 | COC1CCN(S(=O)(=O)N2C[C@H](c3ccc(C)o3)[C@@H](N)C2)CC1 | active: 11.2 µM |  | 
15 | Cc1ccc2scc(N3CCC(C)CC3)c(=O)c2c1 | inconclusive: 0.0631 µM [inhibitor, full curve, poor fit] |  | 
16 | Cc1cccc(N2CCN(C(=O)C3CCCN(S(=O)(=O)c4ccc(Br)s4)C3)CC2)c1C (configuration not stated) | inconclusive: 10 µM [inhibitor, single point] |  | 
17 | O=C(N1CCN([S+](=O)([O-])Cc2ccccc2)CC1)N1CC2CC(C1)[C@H]1CCCC(=O)N1C2 (some centres not stated) |  | inactive: -5.91% | 
18 | O=C(Nc1ccc2cn[nH]c2c1)c1ccc2c(c1)OCCN(c1ccccc1)C2 | active: 11.2 µM |  | 
19 | O=C(c1cnccn1)N1CCN(c2cc(-c3ccccc3)[nH]n2)CC1 |  | inactive: -9.62% | 
20 | Cc1ccc2c(n1)N(C)[C@H](CO)CCN(Cc1ccc(F)cc1)C2 |  | inactive: -2.92% [at 44.1 µM] | 
21 | CC[C@H]1CN2CC[C@H]1C[C@@H]2CNS(=O)(=O)c1cccc2cccnc12 | inconclusive: 5.62 µM [inhibitor, partial curve, poor fit] |  | 

Row | SMILES | Potency | activity, negative = inhibition | outcome
22 | Cc1cccc(OCC(=O)c2ccc3c(c2)N(C(C)C(=O)NCC2CCCO2)C(=O)CO3)c1C (configuration not stated) | inconclusive: 8.91 µM [inhibitor, single point] |  | 
23 | CCOc1ccc(CCNC(=O)c2nc(-c3cccc(F)c3)n3c2CCCCC3)cc1OCC | inconclusive: 11.2 µM [inhibitor, single point] |  | 
24 | Cc1cn2nc(C(=O)NC(C)CCc3ccccc3)cc2c(N2CCCC2)n1 (configuration not stated) | inconclusive: 12.6 µM [inhibitor, single point] |  | 
25 | Cc1cccc(N2CCN(C(=O)CN3C(=O)COc4ccc(S(=O)(=O)N5CCC(C)CC5)cc43)CC2C)c1 (configuration not stated) | inconclusive: 8.91 µM [inhibitor, single point] |  | 
26 | CN(Cc1cnn(C)c1)Cc1ccccc1OCC(O)CN1CCCCC1 (configuration not stated) | inconclusive: 15.8 µM [inhibitor, partial curve, poor fit] |  | 
27 | COCCOc1ccc2c(n1)CCN(C(=O)c1ccc(OC)c(OC)c1)C2 | inconclusive: 7.08 µM [inhibitor, partial curve, poor fit] |  | 
28 | COCCN1CCCCCC(O)c2cc(C(=O)N3CCN(c4cccc(OC)c4)CC3)ccc21 (configuration not stated) | inconclusive: 7.94 µM [inhibitor, single point] |  | 
29 | Cc1[nH]c2ccccc2c1C(c1ccccc1)c1ccc(Cl)s1 (configuration not stated) | active: 8.91 µM |  | 
30 | CC1(C)CC(Nc2nccc(-c3cnn(-c4ccccc4)c3)n2)CC(C)(C)N1 | inconclusive: 5.01 µM [inhibitor, partial curve, poor fit] |  | 
31 | CCc1cccc(-n2nnnc2N2CCN(C(=O)NC(C)c3ccccc3)CC2)c1 (configuration not stated) |  | inactive: -14.2% | 
32 | O=C(CCC[C@@H]1[C@H]2CCCN3CCC[C@@H](CN1C(=O)c1cccnc1)[C@@H]23)N1CCCC1 |  | inactive: 3.45% | 
33 | CC(C)(C)c1ccc(-n2ncc3c2CCCC3NC(=O)c2c[nH]c(=O)[nH]c2=O)cc1 (configuration not stated) | inconclusive: 5.62 µM [inhibitor, partial curve] |  | 
34 | CCN(CC)C(=O)C(NC(=O)c1cccs1)C1CCN(C(=O)CCc2ccccc2)CC1 (configuration not stated) |  |  | inactive
35 | COCc1nc(C2CCCN(C(=O)C3CCC3)C2)no1 (configuration not stated) |  | inactive: 70.4% | 
36 | COCCNC(=O)c1nc(-c2cccc(C(F)(F)F)c2)c2cnccn12 | active: 10 µM |  | 
37 | CC(Oc1ccccc1)C(=O)Nc1ccc(OCc2cc(=O)n3ccsc3n2)cc1 (configuration not stated) | inconclusive: 10 µM [inhibitor, single point] |  | 
38 | COc1ccccc1-c1ccc(CN2C3CCC2CN(C(C)C)C3)cc1 | inconclusive: 8.91 µM [inhibitor, partial curve, poor fit] |  | 
39 | CC1(C)CN(C(=O)c2coc(COc3ccc4c(c3)OCO4)n2)CCO1 |  | inactive: -5.09% | 
40 | Cc1cc(-c2cc3c(ccn3C)c(C(=O)NCc3c(C)cc(C)[nH]c3=O)n2)ccn1 | inconclusive: 31.6 µM [inhibitor, single point] |  | 
41 | COc1ccc(NC(=O)C2CCCCC(=O)N2)cc1F (configuration not stated) |  | inactive: -7.92% | 
42 | COc1ccc(C(=O)N2CCC3(CC2)OC(=O)N(Cc2ccccc2F)C3(C)c2ccccc2)cc1 (configuration not stated) | inconclusive: 1.58 µM [inhibitor, partial curve, poor fit] |  | 
